# Out of some 280,000 compounds screened, about 100 (0.036%) were called active. Inconclusive results, whose numbers are uncertain, are shown with a selection of clear calls. Calls follow the shape of the dose curve; as a rule, active = well fitted inhibition curve with a large enough effect in the signal ratio, with a control signal flat (not every such curve was filed as active); inconclusive = small, poorly fitted or top-dose-only effect, or effect the other way, or a change in a side signal; inactive = no such curve, though single readings can be large or run the other way; the % refers to the signal ratio. Potencies of inconclusive entries are doubtful fits and often do not repeat. A note “side channel” means that the fit belongs to a control or component signal, not to the main read-out.
# Molecular target: Muscleblind-like protein 1 (Homo sapiens) (UniProt Q9NR56)
# Test: qHTS Assay for Inhibitors of MBNL1-poly(CUG) RNA binding
# Conditions: TR-FRET MBNL1-His/biotin-(CUG)12 binding, 665/545 ratio; activity change, negative = inhibition: at 57.5 µM (top of the series)
# Procedure, shortened: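 Compounds (final 92 nM to 58 uM) are added to His-tagged MBNL1 and biotin-(CUG)12, then terbium anti-His antibody and streptavidin-XL665 (5 nM final). After 60 min at room temperature, the 665/545 nm ratio is read.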
# % is scaled to controls: 0 for no effect and ±100 for the full control effect; potency is read from the fitted curve at half-maximal effect; tags tell the direction and shape of the fitted curve or compound fluorescence and quenching.
# UniProt Q9NR56, sequence (Q9NR56 whole entry, looked up): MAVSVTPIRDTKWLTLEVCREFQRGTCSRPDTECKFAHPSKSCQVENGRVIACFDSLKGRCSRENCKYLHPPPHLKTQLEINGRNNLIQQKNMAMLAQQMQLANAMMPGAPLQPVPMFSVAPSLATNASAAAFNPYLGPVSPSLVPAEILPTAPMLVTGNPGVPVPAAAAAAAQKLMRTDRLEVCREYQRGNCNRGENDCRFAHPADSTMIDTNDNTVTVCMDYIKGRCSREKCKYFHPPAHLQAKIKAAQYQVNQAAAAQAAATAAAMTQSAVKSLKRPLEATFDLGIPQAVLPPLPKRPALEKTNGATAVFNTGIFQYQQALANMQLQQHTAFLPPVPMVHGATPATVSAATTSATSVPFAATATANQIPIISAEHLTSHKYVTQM
SMILES,Potency,"activity change, negative = inhibition"
CSc1nnc2ccc(-c3ccccn3)nn12,"inconclusive: 22.4 µM [quencher, side channel, partial curve]",
CCOc1ccc2nc(C)cc(Nc3ccc4c(c3)OCCO4)c2c1,"inconclusive: 39.8 µM [quencher, side channel, single point]",
O=C(Nc1ccccc1N1CCCCC1)c1ccc(-c2ccc(Cl)cc2)o1,"inconclusive: 39.8 µM [quencher, side channel, single point]",
CC1=C(C(=O)OCCNC(=O)c2cccnc2)C(c2cccc([N+](=O)[O-])c2)C(C(=O)OCCN(C)C)=C(C)N1 (centres undefined),"inconclusive: 25.1 µM [quencher, side channel, single point]",
CCCNC(=S)Nc1ccccc1,,inactive: -4.31%
Cc1cc(C)c(S(=O)(=O)NCC23C=CC(O2)C2C(=O)N(c4ccccc4)C(=O)C23)c(C)c1 (centres undefined),,inactive: 2.94%
O=C(Nc1ccc2nc3ccccc3nc2c1)c1ccccc1,"inconclusive: 2.82 µM [quencher, side channel, partial curve]",
O=C1CCCN1c1cc(Cl)cc(Cl)c1,,inactive: 1.75%
Cc1ccc(S(=O)(=O)NNC(=O)Nc2ccc([N+](=O)[O-])cc2)c(C)c1,"inconclusive: 28.2 µM [quencher, single point]",
O=S(=O)(O)c1cccc2c(N=Nc3ccc(O)c4ncccc34)cccc12,"inconclusive: 17.8 µM [quencher, side channel, partial curve]",
N#CC1=C(N)N2C(=C(C#N)C13CCCCC3)SC1CCCCC12O (centres undefined),"inconclusive: 39.8 µM [quencher, side channel, single point]",
CS(=O)(=O)NCCCCNc1ccc(C(F)(F)F)cc1[N+](=O)[O-],"inconclusive: 14.1 µM [quencher, side channel, partial curve]",
COc1cc(/C=C2\SC(=S)N(C(C(=O)O)c3ccccc3)C2=O)ccc1O (centres undefined),"inconclusive: 31.6 µM [quencher, side channel, single point]",
CC(C)c1ccc(Oc2cccc(C(=O)/C(C#N)=C/N(C)C)c2)cc1,"inconclusive: 6.31 µM [quencher, side channel, single point]",
CCN1CCN(CCNC(=O)Nc2ccc([N+](=O)[O-])cc2)CC1,"inconclusive: 15.8 µM [quencher, side channel, partial curve]",
CCS(=O)(=O)c1ccc(OC)c(N=Nc2ccc(O)c3ncccc23)c1,"inconclusive: 7.08 µM [quencher, side channel, full curve]",
CCOC(=O)c1c(C)oc2c1c(C(c1ccncc1)N1CCOCC1)c(O)c1ccccc12 (centres undefined),"inconclusive: 22.4 µM [quencher, side channel, single point]",
O=C(O)CN1C(=O)/C(=C\c2ccc(OC(=O)c3ccco3)cc2)SC1=S,"inconclusive: 12.6 µM [quencher, side channel, partial curve]",
O=C(NCCc1ccccc1)C1CCCN(S(=O)(=O)c2cnc[nH]2)C1 (centres undefined),,inactive: -2.47%
CC1(C)CC(=O)C(C(N)=NC(=O)c2ccc([N+](=O)[O-])cc2)=C(O)C1,"inconclusive: 1 µM [quencher, side channel, full curve, poor fit]",

SMILES,Potency,"activity change, negative = inhibition"
CCC(=O)N1CCN(c2ccccc2NC(=O)c2ccc([N+](=O)[O-])o2)CC1,"inconclusive: 12.6 µM [quencher, partial curve]",
Cc1c(NC(=O)c2cc3nc(-c4ccccc4)cc(C)n3n2)c(=O)n(-c2ccccc2)n1C,"inconclusive: 25.1 µM [quencher, side channel, partial curve]",
Cc1c(NC(=O)c2cc(-c3cccs3)on2)c(=O)n(-c2ccccc2)n1C,"inconclusive: 28.2 µM [quencher, side channel, partial curve]",
CC(/C=C/c1ccccc1)=N/NC(=O)c1nc2nc(C)cc(C)n2n1,"inconclusive: 3.16 µM [quencher, side channel, partial curve]",
Nc1nc(Nc2ccccc2F)sc1C(=O)c1ccccc1,"inconclusive: 22.4 µM [quencher, side channel, single point]",
O=[n+]1cc(-c2ccc(F)cc2)n([O-])c2c1CCC2,"inconclusive: 14.1 µM [quencher, side channel, partial curve]",
O=C(CNc1cccc2ccccc12)c1ccc([N+](=O)[O-])cc1,"inconclusive: 3.98 µM [quencher, side channel, full curve]",
Cc1ccc(S(=O)(=O)Nc2nc3ccccc3nc2NCc2ccc3c(c2)OCO3)cc1C,"inconclusive: 35.5 µM [fluorescent, side channel, partial curve]",
COC(=O)c1c(C)oc2ccc(N(C(=O)c3ccncc3)S(=O)(=O)c3ccc4ccccc4c3)cc12,"inconclusive: 0.1 µM [fluorescent, side channel, full curve]",
NNC(=O)/C(=C\c1ccco1)NC(=O)c1ccco1,"inconclusive: 35.5 µM [quencher, side channel, partial curve]",
COc1cccc(CNc2ccc([N+](=O)[O-])c(NCC(=O)O)n2)c1,"inconclusive: 10 µM [quencher, side channel, partial curve]",
O=C(O)c1cccc(Nc2cc(Cl)c3nonc3c2[N+](=O)[O-])c1,"inconclusive: 10 µM [quencher, side channel, partial curve]",
CC(=O)c1c(COC(=O)c2cccc(C)c2)nc2ccccc2[n+]1[O-],"inconclusive: 11.2 µM [quencher, side channel, partial curve]",
O=C1ON=C(c2cccc([N+](=O)[O-])c2)/C1=C/c1ccc(O)cc1,"inconclusive: 25.1 µM [quencher, side channel, single point]",
Fc1ccc(Cn2cnc3ccccc32)cc1,,inactive: -7.18%
N#C/C(=N/Nc1ccc([N+](=O)[O-])cc1)C(=N)N1CCCCC1,"inconclusive: 14.1 µM [quencher, side channel, partial curve]",
c1ccc(-c2cc3c(-n4cccc4)ncnc3o2)cc1,"inconclusive: 31.6 µM [quencher, side channel, single point]",
CCOc1ccc(OCC)c(-c2c(=O)n(OCc3ccc(Cl)cc3)c3ccccc3[n+]2[O-])c1,"inconclusive: 15.8 µM [quencher, side channel, partial curve]",
O=C(NCCCNC(=O)c1cncc(O)c1)c1cncc(O)c1,,inactive: -9.99%
COc1ccc(NC(=O)CSc2nnc(-c3ccncc3)o2)c([N+](=O)[O-])c1,"inconclusive: 15.8 µM [quencher, side channel, partial curve]",

SMILES,Potency,"activity change, negative = inhibition"
CN(CC(=O)NCc1ccc(Cl)cc1)S(=O)(=O)c1cccc2nsnc12,"inconclusive: 15.8 µM [quencher, partial curve]",
O=[N+]([O-])c1ccc2c(c1)S(=O)c1ccccc1-2 (centres undefined),"inconclusive: 7.08 µM [quencher, side channel, partial curve]",
Nc1nonc1NN=C1CCCCC1,,inactive: -4.68%
Cc1c(C#N)c(=O)oc2ccc3ccccc3c12,"inconclusive: 1.78 µM [quencher, side channel, full curve]",
O=C(NCCc1ccccc1)C(=O)NCC1OCCN1S(=O)(=O)c1ccc([N+](=O)[O-])cc1 (centres undefined),"inconclusive: 10 µM [quencher, side channel, partial curve]",
CC(=O)Nc1ccc(S(=O)(=O)Nc2cc([N+](=O)[O-])ccc2C)cc1,"inconclusive: 28.2 µM [quencher, single point]",
CN1C(=O)c2ccc(C(=O)Nc3cccnc3)cc2C1=O,"inconclusive: 7.08 µM [quencher, side channel, partial curve]",
Cc1cccc2c(N)c3c(nc12)CCCC3 (tested in a mixture with another compound),"inconclusive: 22.4 µM [quencher, side channel, partial curve]",
O=c1[nH]c(/C=C/c2ccc(Cl)cc2Cl)c([N+](=O)[O-])c(=O)[nH]1,"inconclusive: 39.8 µM [quencher, side channel, single point]",
CC(C)CN(CC(C)C)C(=S)Nc1ccc(Cl)cc1,,inactive: -4.26%
Cc1ccc(NC(=S)Nc2ccccn2)cc1C,,inactive: -6.42%
COc1ccc(/C=N\NC(=O)COc2ccc(Cl)cc2Cl)c(C(=O)O)c1OC,"inconclusive: 0.0355 µM [fluorescent, side channel, full curve]",
N#Cc1ccc(CSc2ncnc3c2cnn3Cc2ccccc2)cc1,,inactive: 6.04%
O=C(COc1cccc(Br)c1)N/N=C/C(=O)c1ccccc1,"inconclusive: 25.1 µM [quencher, side channel, single point]",
Cc1c(-c2cccs2)[n+](=O)c2c(n1[O-])CCC2,"inconclusive: 28.2 µM [quencher, side channel, single point]",
CCOc1cc(CNc2ncc(-c3ccc(OC)cc3)n2C)ccc1O,"inconclusive: 79.4 µM [inhibitor, single point]",
Cn1cc(SCC(=O)Nc2ccc3c(c2)OCO3)c2ccccc21,,inactive: -3.76%
CC(=O)Nc1ccc(NC(=O)C/C(C)=N/NC(=O)C(=O)Nc2ccc(C)c(Cl)c2)cc1,,inactive: -0.098%
CSc1cccc(NC(=O)C2CCCN(S(=O)(=O)c3ccc(F)cc3)C2)c1 (centres undefined),"inconclusive: 0.708 µM [quencher, side channel, partial curve, poor fit]",
